In the supplement of paper PMC10369915:
This is one part of the list. Rule as the data show it: active = 3.2 or more and inactive = the rest. Most of these values are background signal.

Assays:
Assay in all cases: enrichment score (SH2-bound / input frequency) (ratio); bacterial display of known human phosphotyrosine sites (pTyr-Var adds point mutants) read by sequencing; higher = stronger binding; tyrosines were phosphorylated by kinases first
Conditions in all cases: peptide library: Human pTyr
[1] = target: SHP2 C-SH2 domain E139D
[2] = target: SHP2 C-SH2 domain wild-type
[3] = target: SHP2 N-SH2 domain L43F
[4] = target: SHP2 N-SH2 domain T42A
[5] = target: SHP2 N-SH2 domain T52S
[6] = target: SHP2 N-SH2 domain wild-type

Measured: enrichment score
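Also: displayed peptides selected on beads carrying the immobilized SH2 domain, with library peptides lacking any tyrosine serving as negative controls.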

VQINDNAYEDLTAKD [NDUV2_HUMAN_193_YA]
inactive: [1] 1 | [2] 0.872 | [3] 1.05 | [4] 0.846 | [5] 0.973 | [6] 0.998

FTEDELPYDDCVFGG [NFKBIA_HUMAN_305]
inactive: [1] 1 | [2] 0.867 | [3] 0.857 | [4] 1.12 | [5] 1.04 | [6] 1.14

EVADKAAYLQSLNSA [MYH2_HUMAN_389]
inactive: [1] 0.658 | [2] 0.595 | [3] 0.844 | [4] 0.878 | [5] 0.685 | [6] 0.739

FYPVPPPYSVATSLP [NFIP2_HUMAN_177]
inactive: [1] 0.583 | [2] 0.533 | [3] 0.648 | [4] 0.651 | [5] 0.65 | [6] 0.764

GNQFRANYFLQPELM [NPHP1_HUMAN_349]
inactive: [1] 0.786 | [2] 0.739 | [3] 0.707 | [4] 0.746 | [5] 0.884 | [6] 0.776

VDPGERLYDLNMPAA [NCK1_HUMAN_105_YA]
inactive: [1] 0.595 | [2] 0.588 | [3] 0.692 | [4] 0.677 | [5] 0.565 | [6] 0.622

DGGNYHVYENGSLEI [NFASC_HUMAN_481]
inactive: [1] 0.773 | [2] 0.66 | [3] 0.818 | [4] 0.862 | [5] 0.59 | [6] 0.912

IEQIGLLYQEYRDKS [NGEF_HUMAN_179]
inactive: [1] 1.01 | [2] 0.904 | [3] 0.806 | [4] 1.07 | [5] 1.1 | [6] 0.917

ACLSPGAYSPDAGLP [ANR11_HUMAN_1851_YA]
inactive: [1] 0.898 | [2] 1.03 | [3] 0.786 | [4] 0.956 | [5] 0.896 | [6] 0.941

VADDFENYHKLRRSS [NETO1_HUMAN_417]
inactive: [1] 0.667 | [2] 0.776 | [3] 0.777 | [4] 0.659 | [5] 0.836 | [6] 0.677

FDLSEQTYDFLGEMR [NPHP1_HUMAN_721]
inactive: [1] 0.59 | [2] 0.528 | [3] 0.611 | [4] 0.921 | [5] 0.719 | [6] 0.419

AGASEPKYASQPILV [MYPC1_HUMAN_823_YA]
inactive: [1] 0.6 | [2] 0.526 | [3] 0.696 | [4] 0.514 | [5] 0.673 | [6] 0.733

TSPGGDYYTSPSSPT [NFIC_HUMAN_300]
inactive: [1] 0.828 | [2] 0.56 | [3] 0.687 | [4] 0.754 | [5] 0.811 | [6] 0.74

SDSDMEDYSPPPSLS [NIPBL_HUMAN_1159]
inactive: [1] 0.746 | [2] 0.69 | [3] 0.9 | [4] 0.896 | [5] 0.772 | [6] 0.779

TDSSPPPYSSITVEV [NFIP2_HUMAN_151]
inactive: [1] 1.35 | [2] 0.896 | [3] 0.798 | [4] 0.813 | [5] 0.725 | [6] 0.954

VDPGERLYDLNMPAY [NCK1_HUMAN_105]
inactive: [1] 0.612 | [2] 0.585 | [3] 0.593 | [4] 0.541 | [5] 0.593 | [6] 0.549

TTSDTEVYGEFAPVP [NFIP2_HUMAN_167_YA]
inactive: [1] 1.25 | [2] 0.62 | [3] 0.616 | [4] 0.698 | [5] 0.705 | [6] 0.634

TSPGGDAYTSPSSPT [NFIC_HUMAN_300_YA]
inactive: [1] 0.267 | [2] 0.523 | [3] 0.395 | [4] 0.353 | [5] 0.129 | [6] 0.575

AKEEIAEYRRQLQSK [NFM_HUMAN_320]
inactive: [1] 0.809 | [2] 0.875 | [3] 0.877 | [4] 0.757 | [5] 0.971 | [6] 0.849

VQINDNYYEDLTAKD [NDUV2_HUMAN_193]
inactive: [1] 1.46 | [2] 1.11 | [3] 0.889 | [4] 1.17 | [5] 1.3 | [6] 1.13

VAPEVINYEPIGYAT [MYLK_HUMAN_1635]
inactive: [1] 0.801 | [2] 0.705 | [3] 0.66 | [4] 0.85 | [5] 0.809 | [6] 0.656

TEVAGEFYPVPPPAS [NFIP2_HUMAN_171_YA]
inactive: [1] 0.495 | [2] 0.434 | [3] 0.64 | [4] 0.562 | [5] 0.488 | [6] 0.352

FACLSPGYASPDAGL [ANR11_HUMAN_1850_YA]
inactive: [1] 1.23 | [2] 1.81 | [3] 0.968 | [4] 0.968 | [5] 1.07 | [6] 1.29

EENLFSDYISEVERT [NMDE2_HUMAN_962]
inactive: [1] 0.866 | [2] 0.959 | [3] 0.786 | [4] 0.922 | [5] 0.815 | [6] 1.27

EKEPEVDYRTVTINT [MYLK_HUMAN_1449]
inactive: [1] 1.04 | [2] 0.691 | [3] 0.976 | [4] 0.987 | [5] 0.834 | [6] 1.36

GNLDGLEYKLHDFGA [NAMPT_HUMAN_188_YA]
inactive: [1] 0.57 | [2] 0.484 | [3] 0.521 | [4] 0.468 | [5] 0.485 | [6] 0.684

KSSRKSEYLLPVAPS [MYLK_HUMAN_611]
inactive: [1] 0.709 | [2] 0.54 | [3] 0.802 | [4] 0.677 | [5] 0.906 | [6] 0.729

IEFVNQYYGSFKEAK [NOS2_HUMAN_151]
inactive: [1] 1.14 | [2] 0.954 | [3] 1.09 | [4] 0.992 | [5] 1.04 | [6] 1.2

DSIELGDYTKAFLIN [ANS1B_HUMAN_901]
inactive: [1] 0.685 | [2] 0.554 | [3] 0.596 | [4] 0.628 | [5] 0.698 | [6] 0.919

VAPEVINYEPIGAAT [MYLK_HUMAN_1635_YA]
inactive: [1] 0.562 | [2] 0.712 | [3] 0.578 | [4] 0.652 | [5] 0.418 | [6] 0.532

AEDAGSHYLCLLKAR [MYLK_HUMAN_471_YA]
inactive: [1] 1.7 | [2] 1.12 | [3] 1.5 | [4] 1.08 | [5] 1.36 | [6] 1.53

GQTVQQVYNAVGALA [MYH1_HUMAN_424]
inactive: [1] 0.696 | [2] 0.657 | [3] 0.623 | [4] 0.659 | [5] 1.08 | [6] 0.585

IENEEQEYVQTVKSS [ANXA1_HUMAN_21]
inactive: [1] 1.1 | [2] 0.979 | [3] 0.845 | [4] 0.84 | [5] 1.01 | [6] 1.02

DGGGSDRYGSLRPGW [MYLK_HUMAN_846]
inactive: [1] 0.659 | [2] 0.684 | [3] 0.662 | [4] 0.72 | [5] 0.713 | [6] 0.637

ERFLFPEYILDPEPQ [NOA1_HUMAN_77]
inactive: [1] 1.14 | [2] 0.847 | [3] 1.13 | [4] 0.683 | [5] 1.11 | [6] 1.05

VVGGCQEYTGAPYFA [NNRD_HUMAN_85]
inactive: [1] 1.13 | [2] 1.19 | [3] 1.03 | [4] 1.16 | [5] 1.15 | [6] 1.24
